This is an account of results in PubChem BioAssay AID1745853 (National Center for Advancing Translational Sciences (NCATS), 2022).

The list shows a part of the results. These are further read-outs of the screen, such as a control signal, another cell line or another target. No call is given for them.

Common to all, as to experiment: Primary Screen for Target Class Profiling of Small Molecule Inhibitors of Methyltransferases
Test [1] addresses Glycine N-methyltransferase (Homo sapiens) (UniProt Q14749). The settings on record: purified enzyme, MTase-Glo SAH luminescence; measured here: GNMT inhibition; at 40 µM; stronger effect = lower value. The method in brief:
(§1)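 Each enzyme was reacted with SAM and its substrate, with compounds tested once at 40 uM; SAH formed was read by MTase-Glo luminescence.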

For test [2], the target named is Guanidinoacetate N-methyltransferase (Homo sapiens) (UniProt Q14353). The conditions noted are these: purified enzyme, MTase-Glo SAH luminescence; measured here: GAMT inhibition; at 40 µM; stronger effect = lower value. The method in brief:
as §1

For test [3], the target named is Histamine N-methyltransferase (Homo sapiens) (UniProt P50135). The settings on record: purified enzyme, MTase-Glo SAH luminescence; measured here: HNMT inhibition; at 40 µM; stronger effect = lower value. The method in brief: as §1
Test [4] concerns the target Nicotinamide N-methyltransferase (Homo sapiens) (UniProt P40261). The settings on record: purified enzyme, MTase-Glo SAH luminescence; measured here: NNMT inhibition; at 40 µM; stronger effect = lower value. The method in brief:
as §1

Test [5] deals with Phenylethanolamine N-methyltransferase (Homo sapiens) (UniProt P11086). The settings on record: purified enzyme, MTase-Glo SAH luminescence; measured here: PNMT inhibition; at 40 µM; stronger effect = lower value. The essentials: as §1
% is scaled to controls: 0 for no effect and ±100 for the full control effect.

For `CC(C)CCN1C(=O)c2cc(-c3ccco3)nn2CC1(C)C(=O)NC1CCCCCC1` (stereo not given), the activity change, negative = inhibition in test [1] is 2.77%; in test [2] it was -1%; in test [3], 4.97%; in test [4], 2.32%; in test [5] it was -2.23%.
The matching figures for `CCC[C@H]1CN(C(=O)c2cc(=O)[nH]c3cc(F)ccc23)C[C@@H]1N`: -2.96%, -0.936%, -1.84%, -1.8% and 3.05%.
The matching figures for `CSc1ccc(CCN2C(=O)c3cc4ccccc4n3CC2(C)C(=O)NCc2ccccc2)cc1` (stereo not given): 0.324%, 5.47%, -2.31%, 3.45% and -2.82%.
The matching figures for `COc1ccccc1N1C(=O)c2cc3ccccc3n2CC1(C)C(=O)NC1CCCC1` (stereo not given): -1.53%, 7.55%, -0.226%, 0.019% and -1.08%.
For the compound `Cn1ncc(N2CCC(CNC(=O)CCN3CCCC3=O)C2)cc1=O` (stereo not given), the activity change, negative = inhibition was -3.6% in test [1]; 3.69% in test [2]; 0.496% in test [3]; -2.6% in test [4]; 11.2% in test [5].
For `Cc1ccccc1CSc1nnc2n(CC(C)C)c(=O)c3ccc(C(=O)NC(C)C)cc3n12`, the activity change, negative = inhibition in test [1] is 5.16%; in test [2] it was 0.953%; in test [3] it was 5.72%; in test [4], -1.18%; in test [5] it was 2.95%.
The matching figures for `Cc1c(Cl)cccc1N1C(=O)c2cc3occc3n2CC1(C)C(=O)NC1CCCCC1` (stereo not given): 0.631%, 4.68%, 2.92%, 4.78% and -1.2%.
Regarding `CC1=CCC(C(C)(C)O[C@@H]2O[C@H](CO[C@@H]3O[C@@H](C)[C@H](O)[C@@H](O)[C@H]3O)[C@@H](O)[C@H](O)[C@H]2O)CC1` (stereo not given in full), the activity change, negative = inhibition is 0% in test [1]; 8.01% in test [2]; 10.3% in test [3]; -5.82% in test [4]; 6.2% in test [5].
The matching figures for `CCN(CC)CCNC(=O)CCc1nnc2n(Cc3ccc(C)cc3)c(=O)c3ccccc3n12`: -8.58%, 4.26%, -40.5%, 5.4% and -8.29%.
Regarding `CCCn1c(=O)c2ccc(Cl)cc2n2c(SCC(=O)Nc3cccc(OC)c3)nnc12`, the activity change, negative = inhibition in test [1] is 0.11%; in test [2] it was 3.38%; in test [3] it was 4.79%; in test [4] it was -3.22%; in test [5] it was -1.66%.
The matching figures for `Nc1ccc(-c2cccc3c(=O)cc(N4CCOCC4)oc23)cc1`: -4.55%, 3.65%, 2.97%, -46.9% and -0.724%.
Consider `COc1ccc(/C=C/C(=O)N2CCCC2)cc1`, for which the activity change, negative = inhibition is -4.66% in test [1]; -6.5% in test [2]; 1.31% in test [3]; -15.7% in test [4]; -9.41% in test [5].
The matching figures for `CC(NC(=O)CC(=O)O)C(=O)Nc1ccccc1C(N)=O` (stereo not given): 1.49%, 4.6%, 5.26%, -8.05% and 5.64%.
As for `Cc1ccsc1C(=O)N1CCN(c2cc(-c3cccs3)[nH]n2)CC1`, the activity change, negative = inhibition in test [1] was -8.67%; in test [2], -3.01%; in test [3], -2.32%; in test [4], -9.45%; in test [5] it was -3.78%.
The matching figures for `CCCn1c(=O)c2ccc(Cl)cc2n2c(SCC(=O)Nc3cccc(C)c3)nnc12`: -2.59%, 2.02%, 0.382%, -0.116% and -2.14%.
Consider `CC1=C(C(=O)OC2CCCCC2)C(c2ccc([N+](=O)[O-])cc2)C2=C(CC(C)(C)CC2=O)N1` (stereo not given), for which the activity change, negative = inhibition was -81.3% in test [1]; -87.8% in test [2]; -44.2% in test [3]; -57.7% in test [4]; -33% in test [5].
`O=C(Nc1ccccc1F)N1Cc2c(sc3c2CCCC3)-n2cccc2C1c1cccc(F)c1` (stereo not given): the activity change, negative = inhibition was 2.07% in test [1]; 0.438% in test [2]; 3.18% in test [3]; -0.235% in test [4]; 5.06% in test [5].
The matching figures for `CCCC1c2cccn2CCN1C(=O)Nc1cc(OC)cc(OC)c1` (stereo not given): -3.67%, 0%, -18.2%, -3.22% and 2.07%.
The matching figures for `Cc1ccc(NS(=O)(=O)c2ccc3c(c2)[C@H]2C=CC[C@H]2[C@@H](c2cccc(Cl)c2)N3)c(C)c1`: -7.77%, -11.4%, -22.1%, -33.2% and -15%.
Turning to `CCOC(=O)c1cc2n(n1)CC(C)(C(=O)NC1CCCCC1)N(c1ccc(C)cc1Cl)C2=O` (stereo not given), the activity change, negative = inhibition in test [1] is 3.21%; in test [2] it was 2.79%; in test [3] it was -4.26%; in test [4] it was 2.81%; in test [5], 0.337%.
On to `COc1cc(NC(=O)Cn2nc3n(CCc4ccccc4)c(=O)c4ccccc4n3c2=O)cc(OC)c1`, for which the activity change, negative = inhibition in test [1] came to 8.27%; in test [2], 1.21%; in test [3] it was 12.6%; in test [4], 9.75%; in test [5], 7.37%.
On to `C=C(C)C1CCC2(C(=O)O)CCC3(C(=O)O)C(CCC4C5(C)CCC(O)C(C)(C(=O)O)C5CCC43C)C12` (stereo not given), for which the activity change, negative = inhibition was 0% in test [1]; -3.75% in test [2]; -4.72% in test [3]; -13.7% in test [4]; 1.06% in test [5].
The matching figures for `COCC1(C(=O)N2C[C@@H](C(=O)O)[C@H](c3ccccc3OC)C2)CCC1`: -3.86%, -4.95%, -2.22%, -2.93% and -2.75%.
`CCCn1c(=O)c2ccccc2n2c(SCC(=O)Nc3ccc4c(c3)OCO4)nnc12`: the activity change, negative = inhibition in test [1] was -7.84%; in test [2] it was 0%; in test [3], 5.59%; in test [4] it was -7.24%; in test [5] it was 0.107%.
The matching figures for `CN1C(=O)c2cc(C(=O)NCCCN3CCCCC3)nn2CC1(C)C(=O)NC1CCCC1` (stereo not given): -3.52%, 0%, 1.75%, -5.04% and -5.49%.
As to `CC[C@@H](C)[C@H]1C(=O)O[C@H](C(C)C)C(=O)N(C)[C@@H](C(C)C)C(=O)O[C@H](C(C)C)C(=O)N(C)[C@@H](C(C)C)C(=O)O[C@H](CC(C)C)C(=O)N1C`, the activity change, negative = inhibition in test [1] is 5.21%; in test [2] it was 6.77%; in test [3] it was 10.3%; in test [4] it was -6.21%; in test [5], -5.18%.
Consider `COC(=O)c1cc2n(n1)CC(C)(C(=O)NC1CCC(C)CC1)N(Cc1ccccc1OC)C2=O` (stereo not given), for which the activity change, negative = inhibition is 3.01% in test [1]; 4.81% in test [2]; 2.39% in test [3]; -1.42% in test [4]; 1.74% in test [5].
Consider `CCOC(=O)N1CCC(Oc2cnc3c(ccn3-c3cncnc3)c2)CC1`, for which the activity change, negative = inhibition in test [1] was -14.8%; in test [2], -14.2%; in test [3], -20.1%; in test [4] it was -21.1%; in test [5], -13.5%.
The matching figures for `CC(C)CCn1c(=O)c2ccc(C(=O)NC3CCCCC3)cc2n2c(=O)n(C)nc12`: 1.3%, 4.75%, 4.47%, 2.73% and 1.34%.
